Assay results taken from ChEMBL document CHEMBL4888484, “Replenishing the malaria drug discovery pipeline: Screening and hit evaluation of the MMV Hit Generation Library 1 (HGL1) against asexual blood stage Plasmodium falciparum ,using a nano luciferase reporter read-out” (2022).
The whole screen tested about 150,000 compounds, of which about 540 (0.36%) showed an effect of 50% or more. This is one part of the list.

test system: Plasmodium falciparum; experiment: Primary screen in NF54 nanoGlo assay, in single point, at 2uM, 72h; a lower Z score goes with more inhibition; format: functional, Erythrocyte; conditions: timepoint 72 hour

SMILES	% Inhibition	Z score
CCOCC(=O)NCC1(CC(C)C)CCC1	9%	-1.31
Cc1cccc(CN2CCC(n3nccc3NC(=O)c3ccc4c(c3)OCO4)CC2)n1	-13%	1.78
CCC[C@H](C)c1cc(NC(=O)Cc2ccc(C)nc2)[nH]n1	-9%	0.96
CN(C)CCCNC(=O)C1CCN(c2nc3ccc(-c4ccc(F)cc4)nc3s2)CC1	16%	-1.72
Cc1oc(C)c(C(=O)N(C)Cc2cnn(C)c2)c1C	12%	-1.24
Cc1ccc(CN(CCO)CCN2CCO[C@@H](C)C2)o1	2%	-0.37
CCN(CC)[C@H](CNC(=O)c1[nH]c(C)c(C(=O)OC)c1C)Cc1ccccc1	7%	-1.11
CCCCc1ccc(N(C)C(=O)Cn2cn[nH]c2=O)cc1	-5%	0.51
O=C(CN(CC(=O)NCc1ccco1)S(=O)(=O)c1ccc(Br)cc1)NCc1ccco1	-3%	0.24
COC[C@H]1CN(C)CC12CCN(C(=O)Cc1cccc(Cl)c1)CC2	14%	-1.62
O=C(NC1CCOCC1)c1cnc(-c2ccccn2)nc1O	-5%	0.86
CC(C)O[C@H]1C[C@@H](NC(=O)c2cccc(F)c2F)C1	1%	-0.08
COc1ccc(F)c(CN2CCC[C@@](O)(CN3CCN(C)C(=O)C3)C2=O)c1	-1%	0.14
O=C(NCCn1nc(-c2ccccn2)c2c1CCCC2)c1cccnc1	1%	-0.17
Cc1c(C(=O)Nc2ccc(F)c(Cl)c2)sc2ncnc(N3CCc4ccccc4C3)c12	17%	-1.95
COc1ccc(-c2nc(N3CCCCCC3)nc3nn4c(C)cc(C)nc4c23)cc1	-5%	0.63
C=CCNC(=O)N1CCc2nc(N3CCC(C)CC3)nc(Oc3cccc(OC)c3)c2C1	2%	-0.33
Cn1cc(NC(=O)NCC(C)(C)C2CCOCC2)c(C(F)(F)F)n1	-10%	1.61
Cc1cc(C)cc(C[C@H]2CC(=O)N(Cc3cc(C)on3)C2=O)c1	-10%	1.75
CCC1CN(C(=O)c2sccc2F)C1	-10%	1.62
CN(c1ccccc1NC(=O)c1cn[nH]c1)C1CCCC1	-13%	2.53
O=C(NCc1ccccn1)c1ccncc1	1%	-0.13

SMILES	% Inhibition	Z score
CC(NS(=O)(=O)CC1CCCC1(F)F)c1ccn(C)n1 (stereo not given)	-3%	0.53
O=C(CN1CCC(c2ncco2)CC1)Nc1ccc2c(c1)OCO2	2%	-0.32
CCCc1nc(CNC(=O)c2cccn2C2CC2)cs1	-11%	1.75
O=C1NC(C2(O)C(=O)Nc3ccccc32)C(=O)N1Cc1ccccc1 (stereo not given)	7%	-0.93
O=C(N[C@@H]1CN(Cc2ccc(F)cc2F)C[C@H]1CO)c1cnccn1	-8%	1.37
CC(C)S(=O)(=O)Nc1cccc(O)c1	-2%	0.23
Cc1cc(CC(=O)N2CCC[C@H]2c2cccc(Br)c2)n[nH]1	-2%	0.3
Cc1sc(CCNC(=O)c2ccc3nc4n(c3c2)CCC4)nc1-c1ccccc1	4%	-0.69
CCCC(=O)Nc1ccccc1C(=O)O	0%	-0.03
Cn1cc(-c2ccc(C(=N)NO)cc2)[n+](C)c1	-31%	3.58
Cc1nnsc1CN(C)C(=O)c1ccc([C@@H]2CCCN2)s1	-5%	0.65
CCCc1ccccc1NC(=O)N1CCC(C)(C)S(=O)(=O)CC1	-9%	0.93
Cc1ccc(CCNC(=O)C(C)(C)NC(=O)Nc2ccccc2)cn1	-3%	0.38
CCCc1ccc(CN2CC(N3CCCCC3)C2)o1	-3%	0.47
Cc1cccc2c1NC1(CCCCCC1)C[C@@H]2C	-16%	1.94
Cc1ccc(CN(Cc2ccc(F)cc2)Cc2nc(C(=O)Nc3ccc(C)c(C)c3)cs2)cc1	-3%	0.44
Cc1nn(C)cc1C(=O)Nc1cc(Cl)ccc1NC1CC1	25%	-2.77
Cc1cccc(O[C@@H](C)C(=O)NC(C)(C)C)c1	-3%	0.43
CCC(NC(=O)c1cc(C)c(O)c(C)c1)[C@H]1C[C@H](O)C1 (stereo not given in full)	-3%	0.32
CCOCC(=O)NC[C@H](OCCO)c1ccc(C)cc1	6%	-0.89
O=C1CCC2(CCN(C/C=C/c3ccc(F)cc3)CC2)CN1Cc1cccnc1	8%	-1.08
C#C[C@H](CO)NC(=O)N[C@H]1C[C@H](c2ccc(F)cc2)C1	-1%	0.24

SMILES	% Inhibition	Z score
C#Cc1cccc(NC(=O)CCOCc2ccccc2)c1	-10%	1.89
FC(F)(F)c1ccc2sc(NC[C@H]3CCCO3)nc2c1	-2%	0.23
CCn1cnnc1CN(C)Cc1cc2n(n1)CCCN(c1ccncc1)C2	-17%	2.64
Cc1ccc(Cl)cc1N1CCN(C(=O)C2CCCC2)[C@@H](C)C1=O	-1%	0.08
CNc1ccc(NC(=O)Cc2c(C)noc2C)cn1	-36%	4.21
Cn1cc(C(=O)NCC2CCN(C(=O)c3ncc(F)cc3F)CC2)cn1	-6%	0.56
CN(Cc1nccs1)C(=O)[C@@]1(C)CCCN(C(=O)c2ccccc2)C1	-11%	1.15
O=C(C1CCN(S(=O)(=O)c2ccc(-c3ccn[nH]3)o2)CC1)N1CCN(c2ccccc2F)CC1	-1%	0.1
N#Cc1ccccc1OCCCO[C@@H]1CCCCO1	-10%	1.06
CN(CCc1noc(-c2ccccc2)n1)S(=O)(=O)c1ccccc1Cl	-2%	0.37
Cc1ccc(CCNc2ccccc2S(C)(=O)=O)cn1	-6%	0.78
CCc1cccc(C)c1NC(=O)Cn1c(=O)n(CCc2cccs2)c(=O)c2sccc21	1%	-0.15
Cc1oc2ncn(CCC(=O)N[C@@H](C)Cc3ccco3)c(=O)c2c1C	-6%	1.08
O=C(NC1(C(F)(F)F)CCOCC1)N1CCOC[C@@H]1CC1CC1	-9%	1.78
O=S(=O)(c1ccc2c(c1)CCC2)N1CCC[C@H]1c1cccc(F)c1	5%	-0.64
CC(c1ccccc1)(c1ccc(NC(=O)c2ccccc2)cc1)c1ccc(NC(=O)c2ccccc2)cc1	-5%	0.82
Cc1ccccc1-c1ncc(CN2CCC[C@H](Nc3ccc4c(c3)OCO4)C2)cn1	2%	-0.3
COc1ccc(CC[C@H](C)NC(=O)c2c(C)noc2C)cc1	-12%	1.13
CS(=O)(=O)c1ccc(CN2CC[C@H](N3CCOCC3)[C@H](CCCO)C2)cc1	-14%	1.84
Cc1cnn([C@H]2CCN(Cc3csc(C4CCCC4)n3)C2)c1	-1%	0.18
O=C1NC[C@@H](O)CC12CN(c1nc(C3CCCCC3)ns1)C2	10%	-1.05
Cn1ncnc1COc1ccccc1-c1nccs1	-1%	0.24

SMILES	% Inhibition	Z score
C=CCNC(=O)NC(=O)CN(C)C1CCOC(c2ccc(F)cc2)C1 (stereo not given)	-1%	0.18
CCOc1cc(C(=O)N(C(=O)c2cc(OCC)c(OCC)c(OCC)c2)c2ccccc2C(F)(F)F)cc(OCC)c1OCC	32%	-3.64
COc1ccc(-c2cc3c(N4CCN(C)CC4)nccn3n2)cc1OC	38%	-1.19
CC(C)(O)c1cnn(Cc2ccccc2)n1	-48%	5.61
CCC(CC)NC(=O)c1cncn1-c1ccc(-c2cc(C)cc(C)c2)cc1	-1%	0.09
c1cc(-n2cnnc2)ccc1OC[C@@H]1CCCN2CCCC[C@H]12	-18%	3.01
C[C@H](NS(=O)(=O)c1ccccc1)C(=O)N1CCN(C(c2ccccc2)c2ccccc2)CC1	-3%	0.59
Cc1ccc(-c2coc(-c3ccc(NC(=O)Nc4ccc(F)cc4F)cc3)n2)c(C)c1	0%	0.06
CCc1nc(CN(C)Cc2cc(C(=O)O)sc2C)cs1	-4%	0.7
Cc1nnc(Cc2ccc(NC(=O)NCC3(Cn4cccn4)CC3)cc2)[nH]1	-4%	0.79
CCC[C@H](C)NC(=O)CN(c1ccc(Oc2ccccc2)cc1)S(=O)(=O)c1ccccc1	-9%	1.31
O=C(O)Cc1ccc(S(=O)(=O)N2CC3(CC3)c3ccccc32)cc1	-10%	1.18
O=C(CN1C(=O)CCC1=O)c1ccc(-c2ccccc2)cc1	-7%	1
O=C(c1cc(C2CC2)[nH]n1)N1CC(F)(F)C[C@H]1COc1ccncc1	-11%	1.83
CCn1nc(C(=O)N2CCCCC2)c2c1CCOC2	3%	-0.33
Nc1c(F)cc(Cl)cc1C(=O)N1CCC(c2ccn[nH]2)CC1	-4%	0.37
Cc1cccc(-c2nnc3c4ccccc4nc(N4CCN(C(=O)c5ccc(Cl)cc5)CC4)n23)c1	4%	-0.5
CCCn1c(-c2ccc(=O)[nH]c2)nc2ccccc21	5%	-0.94
C#CCOc1ccccc1CNC(=O)[C@H](O)c1ccccc1	-8%	1.02
